# Test results: PubChem BioAssay (NCI)
#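 Each compound was tested at five concentrations against cells in 96-well plates for 48 hours. GI50 = concentration required for 50% inhibition of growth. TGI denotes the concentration required for complete inhibition of growth.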
# Tested on: NCI-H322M lung
# Assay: NCI tumour cell line growth inhibition, 48 h
Compound,TGI [µM],GI50 [µM]
CCC(C)[C@H]1C(=O)N=C(N)N1C(=O)OCc1ccccc1 (stereo partly drawn),> 100,–
Cn1c(=O)c2[nH]c(/N=N\n3ccc4ccccc43)nc2n(C)c1=O,> 100,–
Nc1ccn(C2OC(CO[P+](=O)OC3C(CO[P+](=O)OC4C(CO[P+](=O)OC5C(CO[P+](=O)OC6C(CO[P+](=O)OC7C(CO[P+](=O)OC8C(CO[P+](=O)OC9C(CO[P+](=O)OC%10C(CO[P+](=O)OC%11C(CO)OC(n%12ccc(N)nc%12=O)C%11(F)F)OC(n%11ccc(N)nc%11=O)C%10(F)F)OC(n%10ccc(N)nc%10=O)C9(F)F)OC(n9ccc(N)nc9=O)C8(F)F)OC(n8ccc(N)nc8=O)C7(F)F)OC(n7ccc(N)nc7=O)C6(F)F)OC(n6ccc(N)nc6=O)C5(F)F)OC(n5ccc(N)nc5=O)C4(F)F)OC(n4ccc(N)nc4=O)C3(F)F)C(O)C2(F)F)c(=O)n1 (stereo not drawn),> 100,16
Nn1c(-c2ccccc2Nc2ccccc2-c2n[nH]c(=S)n2N)n[nH]c1=S,> 50,–
N#Cc1cc2c(n(C3OC(CO)C(O)C(O)C3O)c1=S)CCCCC2 (stereo not drawn),> 100,–
Nc1sccc1S(=O)(=O)c1ccsc1N,> 100,–
CCOC(=O)c1c(N2CCOCC2)[nH]c(=O)c(C(c2c(O)c(C(=O)OCC)c(N3CCOCC3)[nH]c2=O)C(C)C)c1O,> 100,–
CCOC(=O)N/N=C/C1=NN(C(=O)OCC)S(=O)C1C (stereo not drawn),> 100,–
C/C(=C\CNc1ncnc2nc(Cl)[nH]c12)CO,> 100,–
O=P(O)(O)OP(=O)(O)O,> 100,–
COC(=O)C1=C(O)C(C(=O)OC)[C@]2(O)[C@H](C(=O)OC)[C@H]1C[C@@H](c1ccccc1OC)[C@H]2C(=O)OC (stereo partly drawn),24.1,–
Nc1cccc(-c2nc3sccn3c2-c2ccnc(NCCCNS(=O)(=O)c3ccc(C(F)(F)F)cc3)n2)c1,56.4,7.63
CCC1(O)C(=O)OCc2c1cc1n(c2=O)Cc2c-1nc1ccccc1c2OC (stereo not drawn),2.59,–
C=CCOC1=C2CC[C@H](O)[C@@]2(C)CCC1=O,> 100,–
CN(C)c1ccc(/C=C2\C[C@H]3[C@@H]4CCC5=CC(=O)CC[C@]5(C)[C@H]4CC[C@]3(C)C2=O)cc1,> 100,–
Cn1c(=O)c(Sc2ccccc2F)cc2cnc(NC3CCOCC3)nc21,> 25,> 25
NS(=O)(=O)c1cc(S(N)(=O)=O)c(NC(=O)Nc2ccc(Cl)c(Cl)c2)c(Cl)c1Cl,> 100,–
NC(=S)SC1=NNC2(C(=O)N1)c1ccccc1-c1ccccc12,> 10,–
CCN(CC)C(=O)C1=C(C)NC(C)=C(C(=O)N(CC)CC)C1,> 100,–

Compound,TGI [µM],GI50 [µM]
COC(OC)C1(c2ccccc2)Oc2ccccc2C1=O (stereo not drawn),> 100,–
CCOC(=O)[C@H](Cc1ccccc1)NC(=O)c1nc[nH]c1[N+](=O)[O-],> 100,–
CN(C)S(=O)(=O)n1ccnc1,> 100,–
Nc1ccc(-c2nc3cc(F)ccc3s2)cc1Br,> 100,–
S=C(Nc1ccc(-c2nc3ccccc3s2)cc1)Nc1ccccn1,> 89.4,30.1
CSc1nc(C)cc(N(C)c2ccccc2)n1,> 100,–
O=C(CC(=O)C(=O)CC(=O)OCc1ccccc1)OCc1ccccc1,> 100,–
COC1=C(C)C(=O)C2C(C1=O)C(c1ccc(OC)c(OC)c1)[C@H]2C (stereo partly drawn),> 100,–
Cc1cc(C)nc(NC(=S)Nc2cccc(Cl)c2)c1,> 100,–
COc1ccc(S(=O)(=O)Nc2cc(/C=C\c3cc(OC)c(OC)c(OC)c3)cc(OC)c2OC)cc1OC,> 100,4.71
CNC(=S)NNC1=NCCCN1,> 100,–
c1ccc2c(c1)nnn1c3cnccc3nc21,81.6,–
CNC(=S)NNC(=O)c1c(C)nc2sccn12,> 100,–
O=CC(O)C(O)C(O)COc1cc(CO)cc2c1C(=O)c1ccccc1C2=O (stereo not drawn),> 100,–
O=C1C(CN(Cc2ccccc2)Cc2ccccc2)CCCC1CN(Cc1ccccc1)Cc1ccccc1 (stereo not drawn),> 100,–
OCC1OC(n2ccc3cnccc32)CC1O (stereo not drawn),> 100,–
NC(N)=NS(=O)(=O)c1ccc(Nc2c3ccccc3nc3c(C(=O)N4CCN(CCO)CC4)ccc(Cl)c23)cc1,> 100,–
O=[N+]([O-])c1ccc(Oc2cccnc2)c([N+](=O)[O-])c1,55,18.2
